From patent US20200003760A1, “IN-VITRO METHODS FOR CLASSIFYING DRUGS ACCORDING TO THEIR POTENTIAL TO CAUSE LIVER CELL INJURY” (Board of Trustees of Michigan State University, priority 2018, published 2020)
For some assays here: At least one read-out could not be matched to a standard name with certainty. For some assays here: For at least one compound, name, drawing or mass did not settle the structure.

Tests used:
HepG2 cells = test: Drug/cytokine-induced cytotoxicity (% LDH release) concentration-response in HepG2 cells; type: cell-based, human; conditions: for EC50 / EC50 IFN / EC50 TNF / EC50 TNF/IFN: LDH release, NA = no statistically significant increase from min; for EC50 / EC50 IFN / EC50 TNF / EC50 TNF/IFN / max IFN / max TNF / max TNF/IFN: 24 h; for EC50: drug alone (VEH); for EC50 IFN / max IFN: with IFN 10 ng/ml; for EC50 TNF / max TNF: with TNF 10 ng/ml; for EC50 TNF/IFN / D10 TNF/IFN: with TNF and IFN; for D10 IFN / D10 TNF / D10 TNF/IFN: categorical, Delta threshold 10 LDH percentage points; for D10 IFN: with IFN; for D10 TNF: with TNF; for max IFN / max TNF / max TNF/IFN: maximal LDH response; for max TNF/IFN: with TNF and IFN 10 ng/ml each; for EC10 quotient: ratio between drug/TNF and drug/VEH curves, 0 if Q = 0
Procedure: Cells were passed or used for experiments when they reached approximately 80% confluence. Cells were used at passage 6-16.
HepG2 cells were plated at a density of 4×10^4 cells per well in black-walled, 96-well, tissue culture plates and were allowed to attach overnight before being treated with compounds. Drugs were reconstituted in vehicles consisting of sterile water or DMSO (concentration less than 0.5%). Cells were treated with various concentrations of the drug or its vehicle (control) alone or in combination with the cytokines TNF (10 ng/ml) and/or IFN (10 ng/ml) or their PBS vehicle (VEH). Cytotoxicity was evaluated as lactate dehydrogenase (LDH) activity released from the cells into culture medium using the Homogeneous Membrane Integrity Assay kit from Promega (Madison, Wis.).
Concentration-response curves were generated for 24 drugs, 14 of which are associated with human IDILI and 10 of which are not. […] This was necessary because four-parameter logistic modeling used in the statistical analysis requires well defined, sigmoidal concentration-response curves. Cells were exposed to drug/cytokine combinations for 24 hours. For analysis of drug concentration-response data, concentrations of each drug were expressed as a fraction of its Cmax.
Defining covariates: four-parameter logistic model. In the first phase, variables (potential covariates) for use in the classification analysis were defined from the analysis of drug concentration-response data. Initially, a one-way analysis of variance (ANOVA) was used as an omnibus test to determine if a particular treatment (e.g. drug alone or in combination with TNF and/or IFN) caused a significant change in LDH release relative to baseline (i.e., LDH release in the absence of drug, hereafter designated “min”). The criterion for significance for the ANOVA was set at α=0.01. A 1% level of significance was used to rule out more vigorously marginal relationships between concentration and response.
where LDH(x) is the percentage of LDH released at a given concentration x; x=[drug]/Cmax; min=the % LDH release at 0 drug concentration (i.e., baseline); and max=the maximal LDH response (i.e., maximum % LDH release).
where D10 is a categorical variable related to reaching a threshold LDH response above which a drug is classified as positively associated with IDILI. D10 is defined as 0 if Delta<10% LDH release and as 1 if Delta≥10% LDH release.
The base covariate R10 represents the [drug]/Cmax value associated with an increase in 10 LDH percentage points above min for a particular treatment condition and was determined by the equation:
R10 was considered to be 0 when the Delta<10% LDH (i.e. when D10=0).
EC50 quotient, EC10 quotient and R10 quotient represent the ratio between the EC50, EC10 or R10 of the drug/cytokine concentration-response curve and the respective value for the drug/VEH concentration-response curve. In some instances, the value derived from this calculation is indeterminate (i.e. when the denominator=0). In order to incorporate the quotient values into the classification models described below, the categorical variable “Q” was used to eliminate the possibility of the quotient being indeterminate. Q is defined as 0 if Delta VEH and/or Delta cytokine is <10% LDH and 1 if both Delta VEH and Delta cytokine are ≥10% LDH. […] The same condition was applied for calculation of EC10 quotient and R10 quotient.
Deltadiff represents the difference between the Delta of the drug/cytokine concentration-response curve and the Delta of the drug/VEH curve. In other words, Deltadiff=(Delta cytokine)−(Delta VEH). FIG. 1 graphically illustrates several of the covariates defined above. […] In addition to the covariates derived from the concentration-response curves, the maximal therapeutic plasma drug concentration (Cmax) in human patients was used in some models (Table 1).

[1] = Logistic regression classification model: probability that a drug is associated with IDILI; design: species or system human; conditions: for Estimated probability: probability that drug is associated with IDILI, covariates Deltadiff, EC50 VEH, EC50 TNF, Delta VEH, Cmax, optimal cutoff 0.46
From the text: Classification modeling using defined covariates. In the second phase of analysis, classification models were developed using logistic regression with covariates as independent variables in the analysis and known IDILI classification as the dependent variable. A model selection process was used to determine if a covariate or set of covariates is associated with IDILI liability. Covariates were first evaluated individually to determine how well a particular covariate classified drugs according to IDILI liability, and then covariates were evaluated in combination. Combinations of covariates were selected to maximize the ability of the model to distinguish between drugs associated or not with IDILI. Specifically, covariates that describe changes in efficacy (Delta, Deltadiff, etc.) were paired with covariates that describe changes in potency (EC50, EC10, R10, etc.) to find covariate combinations that led to models that most accurately discriminated between drugs that are and are not associated with IDILI. […] The logistic regression models follow the equation: […]
where ŷi is the calculated (predicted) probability that drug i with a vector of covariates xi is associated with IDILI. The β coefficients (β0, the regression intercept; and βi, the regression slopes for model covariates, xi) were derived from the logistic regression models using 1) combinations of the covariates (xi) generated by concentration-response modeling for each of the 24 drugs evaluated in this study, and 2) the true IDILI classification for the dependent variable yi (i.e., 1 for IDILI+drugs and 0 for IDILI-drugs). […] This occurs when a covariate almost perfectly separates observations into the appropriate categories. […] When separation or quasi-complete separation occurs, use of the standard method (i.e., maximum likelihood estimation) provides biased, unreliable estimates of βi.
Receiver operating characteristic (ROC) analysis. In the third phase of the statistical approach, the classification models, generated as logistic regression models using single covariates or combinations of covariates, were evaluated by ROC analysis to determine which model and corresponding sets of covariates led to the most accurate classification of drugs according to their potential to cause IDILI. An ROC curve was created for each model by graphing the true positive rate (sensitivity; i.e., proportion of drugs correctly classified as associated with IDILI) against the false positive rate (1-specificity; i.e., proportion of drugs incorrectly classified as associated with IDILI) at various probability cutoff thresholds (k). […] An area under the curve (AUC) and confidence interval was computed for each ROC curve (where each logistic regression model has one ROC curve). […]

Structure (SMILES)	EC50 (HepG2 cells)	EC50 IFN (HepG2 cells)	EC50 TNF (HepG2 cells)	EC50 TNF/IFN (HepG2 cells)	D10 IFN (HepG2 cells)	D10 TNF (HepG2 cells)	D10 TNF/IFN (HepG2 cells)	max IFN (HepG2 cells)	max TNF (HepG2 cells)	max TNF/IFN (HepG2 cells)	EC10 quotient (HepG2 cells)	Estimated probability [1]	classification by the best-performing model ([1]; optimal cutoff)
CCc1ccc(CCOc2ccc(CC3SC(=O)NC3=O)cc2)nc1 (centres unmarked) [Pioglitazone]	81.9 [drug]/Cmax	86.8 [drug]/Cmax	87.5 [drug]/Cmax	88.0 [drug]/Cmax	1 (D10 = 1 when the Delta > 10 LDH percentage points)	1 (D10 = 1 when the Delta > 10 LDH percentage points)	1 (D10 = 1 when the Delta > 10 LDH percentage points)	44.2 % LDH release	45.6 % LDH release	43.6 % LDH release	1.0	0.2935	
CC[C@H]1OC(=O)[C@H](C)[C@@H](O[C@H]2C[C@@](C)(OC)[C@@H](O)[C@H](C)O2)[C@H](C)[C@@H](O[C@@H]2O[C@H](C)C[C@H](N(C)C)[C@H]2O)[C@](C)(O)C[C@@H](C)CN(C)[C@H](C)[C@@H](O)[C@]1(C)O [Azithromycin]				207.1 [drug]/Cmax	0 (D10 = 0 when Delta ≤ 10 LDH percentage points)	0 (D10 = 0 when Delta ≤ 10 LDH percentage points)	1 (D10 = 1 when the Delta > 10 LDH percentage points)	12.3 % LDH release	13.0 % LDH release	29.2 % LDH release	0		
CC(C)Cc1ccc(C(C)C(=O)O)cc1 (centres unmarked) [Ibuprofen]	72.8 [drug]/Cmax	75.7 [drug]/Cmax	38.6 [drug]/Cmax		1 (D10 = 1 when the Delta > 10 LDH percentage points)	1 (D10 = 1 when the Delta > 10 LDH percentage points)	1 (D10 = 1 when the Delta > 10 LDH percentage points)	104.1 % LDH release	105.2 % LDH release	105.1 % LDH release			
C[C@H]1COc2c(N3CCN(C)CC3)c(F)cc3c(=O)c(C(=O)O)cn1c23 [Levofloxacin]					0 (D10 = 0 when Delta ≤ 10 LDH percentage points)	0 (D10 = 0 when Delta ≤ 10 LDH percentage points)	0 (D10 = 0 when Delta ≤ 10 LDH percentage points)	13.7 % LDH release	12.1 % LDH release	14.5 % LDH release		0.1329	
CC(C)C(=O)Nc1ccc([N+](=O)[O-])c(C(F)(F)F)c1 [Flutamide]	27.7 [drug]/Cmax	33.5 [drug]/Cmax	76.7 [drug]/Cmax	86.6 [drug]/Cmax	0 (D10 = 0 when Delta ≤ 10 LDH percentage points)	0 (D10 = 0 when Delta ≤ 10 LDH percentage points)	0 (D10 = 0 when Delta ≤ 10 LDH percentage points)	22.1 % LDH release	25.0 % LDH release	21.0 % LDH release	0	0.7036	correctly as IDILI1
CN[C@H]1CC[C@@H](c2ccc(Cl)c(Cl)c2)c2ccccc21 [Sertraline]					0 (D10 = 0 when Delta ≤ 10 LDH percentage points)	0 (D10 = 0 when Delta ≤ 10 LDH percentage points)	0 (D10 = 0 when Delta ≤ 10 LDH percentage points)	14.5 % LDH release	16.4 % LDH release	16.6 % LDH release	0		
N[C@@H]1[C@H]2CN(c3nc4c(cc3F)c(=O)c(C(=O)O)cn4-c3ccc(F)cc3F)C[C@@H]12 [Trovafloxacin]	13.9 [drug]/Cmax	9.3 [drug]/Cmax	8.0 [drug]/Cmax		0 (D10 = 0 when Delta ≤ 10 LDH percentage points)	1 (D10 = 1 when the Delta > 10 LDH percentage points)	1 (D10 = 1 when the Delta > 10 LDH percentage points)	18.4 % LDH release	45.6 % LDH release	68.7 % LDH release			
Cc1onc(-c2c(F)cccc2Cl)c1C(=O)N[C@@H]1C(=O)N2[C@@H]1SC(C)(C)[C@@H]2C(=O)O [Flucloxacillin]		32.0 [drug]/Cmax			0 (D10 = 0 when Delta ≤ 10 LDH percentage points)	0 (D10 = 0 when Delta ≤ 10 LDH percentage points)	0 (D10 = 0 when Delta ≤ 10 LDH percentage points)	19.8 % LDH release	17.5 % LDH release	16.9 % LDH release	0		
CCCC(CCC)C(=O)O [Valproic Acid]					1 (D10 = 1 when the Delta > 10 LDH percentage points)	1 (D10 = 1 when the Delta > 10 LDH percentage points)		75.4 % LDH release	84.1 % LDH release				
